# Results reported in article PMC4336329 (PLoS ONE, 2015).
# About 2,200 (0.71%) of roughly 310,000 compounds showed an effect of 50% or more. Effects have a minus sign here. Some of the results follow.
# Biological target: human ether-à-go-go-related gene (hERG) potassium channel (human, UniProt Q12809)
# Assay: primary screen, population patch clamp on CHO cells stably expressing hERG
# Sequence of human ether-à-go-go-related gene (hERG) potassium channel (Q12809 whole entry, looked up): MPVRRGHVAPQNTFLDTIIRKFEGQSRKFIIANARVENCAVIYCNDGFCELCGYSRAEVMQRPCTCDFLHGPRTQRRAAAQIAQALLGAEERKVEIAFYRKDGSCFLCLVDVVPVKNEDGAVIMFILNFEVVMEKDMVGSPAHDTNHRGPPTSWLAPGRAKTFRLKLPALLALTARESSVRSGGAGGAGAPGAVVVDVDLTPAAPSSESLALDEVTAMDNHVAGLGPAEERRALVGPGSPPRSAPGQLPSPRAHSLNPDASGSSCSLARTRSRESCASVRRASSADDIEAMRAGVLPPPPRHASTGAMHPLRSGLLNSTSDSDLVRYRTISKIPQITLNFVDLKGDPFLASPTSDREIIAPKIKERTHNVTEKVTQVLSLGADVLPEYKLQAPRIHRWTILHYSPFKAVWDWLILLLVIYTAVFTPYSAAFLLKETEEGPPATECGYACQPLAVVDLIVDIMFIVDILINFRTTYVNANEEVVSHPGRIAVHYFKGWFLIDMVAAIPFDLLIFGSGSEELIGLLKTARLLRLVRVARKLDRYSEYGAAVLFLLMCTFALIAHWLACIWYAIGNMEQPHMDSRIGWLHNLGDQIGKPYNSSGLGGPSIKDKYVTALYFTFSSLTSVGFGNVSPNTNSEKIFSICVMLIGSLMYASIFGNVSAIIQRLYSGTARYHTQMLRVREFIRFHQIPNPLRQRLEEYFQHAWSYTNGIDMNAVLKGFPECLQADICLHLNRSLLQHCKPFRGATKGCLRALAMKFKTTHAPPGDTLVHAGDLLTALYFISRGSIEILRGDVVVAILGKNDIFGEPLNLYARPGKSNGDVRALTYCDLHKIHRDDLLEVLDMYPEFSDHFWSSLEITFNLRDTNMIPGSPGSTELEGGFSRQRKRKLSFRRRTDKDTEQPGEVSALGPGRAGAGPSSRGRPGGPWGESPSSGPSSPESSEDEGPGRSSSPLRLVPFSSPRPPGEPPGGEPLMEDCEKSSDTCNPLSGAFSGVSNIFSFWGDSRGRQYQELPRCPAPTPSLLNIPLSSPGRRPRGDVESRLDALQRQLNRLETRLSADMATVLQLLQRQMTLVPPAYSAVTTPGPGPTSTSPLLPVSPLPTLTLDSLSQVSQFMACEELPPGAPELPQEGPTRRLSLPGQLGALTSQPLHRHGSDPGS
row,Structure (SMILES),"hERG current change (%, negative = inhibition) at 1uM"
1,CC(=O)N/C(=C\c1ccccc1)C(=O)NCc1ccc2c(c1)OCO2,6.11%
2,CCN(CC)CCNC(=O)c1c(O)c2c([nH]c1=O)CCCC2,8.37%
3,COc1ccc(C)cc1NC(=O)Cn1c(=O)oc2ccccc21,16.1%
4,Cc1ncc(C[n+]2ccc(C)c(C)c2)c(N)n1.[Cl-],11.8%
5,CCn1c(Cc2ccc(OC)cc2)nnc1SCC(=O)N1CCN(c2ccccc2)CC1,1.4%
6,COc1cccc(C2CCCN2Cc2nc(-c3sccc3C)oc2C)c1 (stereo not drawn),13.3%
7,COc1ccc(CC(=O)NCc2n[nH]c(=S)n2-c2ccccc2OC)cc1,10.5%
8,CCOC(=S)SCC(=O)Nc1nccs1,13%
9,CC1CC(C)CN(C(=O)c2ccc(S(=O)(=O)N3CCCC3)cc2)C1 (stereo not drawn),12.1%
10,COc1cc(OC)cc(C(=O)Nc2nc(CC(=O)NCCc3ccccc3)cs2)c1,-8.22%
11,O=C(O)CN1CCCCCC1=O,18.3%
12,COc1ccc(CCN(C)C(=O)C2CCN(Cc3cccc(OC)c3OC)CC2)cc1OC.O=C(O)C(=O)O,0.728%
13,CCOc1ccc(NC(=O)CSc2nc3c([nH]c4ccccc43)c(=O)n2C)cc1,14.5%
14,COc1cccc(C(=O)c2sc(NC(C)C)nc2N)c1,5.02%
15,Cc1ccc(NC(CC(=O)c2ccccc2)c2ccc(F)cc2)cc1 (stereo not drawn),-2.52%
16,COc1ccc(NC2CCCN(C(=O)COc3ccc(Cl)cc3C)C2)cc1OC (stereo not drawn),6.12%
17,Cn1c(=O)c(=O)n(C)c2cc(S(=O)(=O)CCC(=O)N3CCCCC3)ccc21,14.8%
18,C=CCOc1ccc(/C=C/C(=O)OCC(=O)NC(C)c2ccc(F)cc2)cc1 (stereo not drawn),9.9%
19,O=C(O)C1Cc2[nH]cnc2C(c2ccccc2O)N1 (stereo not drawn),11.7%
20,CCc1n[nH]c2c1/C(=N\O)CC(c1ccccc1)C2 (stereo not drawn),-18.4%
21,O=C(O)c1cnn2c1NC(c1cccs1)CC2C(F)(F)F (stereo not drawn),6.11%
22,CC(C)=NOC(=O)c1c(C)noc1-c1snnc1C,13.2%
23,Cc1c(Cl)cnc(NC(=O)COC(=O)CCS(=O)(=O)c2ccccc2)c1Cl,5.79%

row,Structure (SMILES),"hERG current change (%, negative = inhibition) at 1uM"
1,Cc1ccc(S(=O)(=O)NC(=O)N(C)C2CCCCC2)cc1,11.4%
2,COc1ccccc1Nc1nc2c(s1)CCC2,0.431%
3,CCOC(=O)c1nc2ccccc2c(=O)n1-c1ccc(C)cc1C,7.22%
4,CCCCc1ccc(NC(=O)Nc2cnccn2)cc1,-2%
5,CCCOc1ccc(/C=N/NC(=O)C2CCCN2S(=O)(=O)c2ccc(Cl)cc2)cc1 (stereo not drawn),7.59%
6,CC[C@H](C)Cc1cn([C@@H](CCCN=C(N)N)C(=O)NCCCCCCCCCCC(=O)N2CCNCC2)nn1,12.8%
7,Cc1ccc(COc2coc(CO)cc2=O)cc1,2.48%
8,CCOc1ccc(N2C(=O)C3C(c4ccccc4)=NN(c4ccccc4)C3C2=O)cc1 (stereo not drawn),5.52%
9,O=C1CNC(=S)N1Cc1ccc(F)cc1,17%
10,CCOC(=O)c1sc(NC(=O)/C=C/c2cnn(CC)c2C)c(C(=O)OCC)c1C,15.6%
11,CCOC(=O)C1C(C)N=C2SCC(=O)N2C1c1cccc(Br)c1 (stereo not drawn),-2.89%
12,Cc1cc2c(=O)n(Cc3ccco3)c(SCC(=O)N3CCCc4ccccc43)nc2s1,0.209%
13,O=C(NCCc1c[nH]c2ccccc12)c1cnc2n(c1=O)CCS2,8.73%
14,COCCNC(=O)CNS(=O)(=O)c1ccc2nc(C)sc2c1,4.83%
15,Cc1cc(C)cc(C(=O)OCC(=O)NC(=O)NC2CCCC2)c1,11.6%
16,CCc1ccccc1NC(=O)c1nnn(CC(=O)Nc2cccc(C)c2C)c1N,1.6%
17,Cc1ccc(S(=O)(=O)NCCC(=O)N2CCN(c3cccc(Cl)c3)CC2)cc1C,15.2%
18,CC(=O)Nc1ccc(S(=O)(=O)N(C)CC(=O)NC2=NCCS2)cc1,5.78%
19,Cn1cnc2c1c(=O)n(Cc1cccc(Br)c1)c(=O)n2C,-12.8%
20,Cc1cc(OCC(=O)N2CCC(C(N)=O)CC2)c2c(C)c(C)c(=O)oc2c1,12.9%
21,CC(C)CC(C(=O)NCc1ccccn1)N1C(=O)c2ccccc2C1=O (stereo not drawn),12.5%
22,CN(C)S(=O)(=O)Oc1cccc(C(=O)Nc2ccc([N+](=O)[O-])cc2)c1,14.3%
